Measurements from PubChem BioAssay (NCI).
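In this assay, cells in 96-well plates receive the compound at five concentrations for 48 hours. Endpoints are linearly interpolated between the surrounding concentrations. GI50 is the concentration that inhibits growth by half. TGI: concentration producing complete growth inhibition.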

These compounds were tested on NCI-H322M lung (assay: NCI anticancer screen, dose series, 48 h).

Structure (SMILES) | GI50 [µM] | TGI [µM]
COc1ccc(CCN2C(=O)/C(=C/c3csc(C#N)n3)SC2=S)cc1 | 15.2 | 29.9
O=C(c1ccc(Cl)cc1)C1[C@H](c2ccccc2Br)[C@@H](c2ccccc2)NC12C(=O)Nc1ccccc12 (stereo partly specified) | 9.53 | > 56
C=C1CCC2C3(C)COC(c4c(F)cccc4F)OC3CCC2(C)C1C/C=C1/C(=O)OCC1O (stereo unspecified) | 10.8 | 22.7
